The values below come from the supplement of paper PMC4604168 (melanoma cell lines).

This is one part of the list. Repeats are few or missing, and single values can be far off.

Some test systems named below: MeWo; RPMI7951; RVH-421; SkMel28; SkMel30; SkMel5; UACC257; UACC62; MZ2-MEL.
Holding throughout (test): cell count relative to DMSO control; melanoma cells; higher = more viable cells
What all share (conditions): library dose: low library concentration; 72 h
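Also: cell number obtained by counting DAPI-stained nuclei in high-throughput microscope images with image analysis software, screen run in 1,536-well plates.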

Consider `CCN(CC)CCNC(=O)c1c(C)[nH]c(/C=C2\C(=O)Nc3ccc(F)cc32)c1C` [sunitinib] + O=C(Nc1ccccc1)c1cc([N+](=O)[O-])ccc1Cl [GW9662] (first compound 0.4 µM, partner dose 2 µM), for which the cell count amounted to 83.3% with MeWo; 105% with RPMI7951; 107% in the assay with RVH-421; 85.2% in the assay with SkMel28; 59.7% in the assay on SkMel30; 117% in the assay with SkMel5. Also, the values for the cell count with UACC257 and in the assay with UACC62 were 95.3% and 90.6%, respectively.
As to `Cn1cnc2c(F)c(Nc3ccc(Br)cc3Cl)c(C(=O)NOCCO)cc21` [selumetinib] + O=C(O)c1ccc2c(c1)nc(Nc1cccc(Cl)c1)c1ccncc12 [CX4945] (first compound 0.015 µM, partner dose 0.4 µM), the cell count with MeWo was 86.1%; in the assay with RPMI7951, 102%; in the assay with RVH-421, 90.6%; in the assay with SkMel28, 94.9%; in the assay on SkMel30, 53.1%; with UACC62 it was 71.4%.
Consider `C[C@]1(O)C[C@@H](c2nc(-c3ccc4ccc(-c5ccccc5)nc4c3)c3c(N)nccn32)C1` + C[C@@H](Oc1cc(-c2cnn(C3CCNCC3)c2)cnc1N)c1c(Cl)ccc(F)c1Cl [Crizotinib] (first compound 0.4 µM, partner dose 0.2 µM), for which the cell count in the assay on MZ2-MEL came out at 95.8%; in the assay on MeWo, 78.3%; with RPMI7951, 96.5%; in the assay on RVH-421 it was 111%; with SkMel28, 93.2%; in the assay on SkMel30, 77.6%. In the assay on UACC62, this molecule had a cell count of 93.7%.
